# Data reported in PubChem BioAssay AID1768 (National Center for Advancing Translational Sciences (NCATS), 2009).
# Screen size: about 270,000 compounds; about 620 (0.23%) were called active. Inconclusive means that the source gave no clear call. Such entries were picked first, then a sample of the others. Calls come from the whole dose curve; as a rule, active = well fitted inhibition curve with a large enough effect in the polarisation, with a control signal flat (not every such curve was filed as active); inconclusive = small, poorly fitted or top-dose-only effect, or effect the other way, or a change in a side signal; inactive = no such curve, though single readings can be large or run the other way; the % refers to the polarisation. Where the call is inconclusive, the potency comes from a doubtful curve fit. A note “side channel” means that the fit belongs to a control or component signal, not to the main read-out.
# Target: Menin (Homo sapiens) (UniProt O00255)
# Experiment: qHTS Assay for Inhibitors Targeting the Menin-MLL Interaction in MLL Related Leukemias: Competition With Texas Red Labeled MLL-derived Mutant Peptide; for FP activity change, negative = inhibition: % of control where 0% means no effect
# Conditions: fluorescence polarization; FP activity change, negative = inhibition: at 61.6 µM (top of the series)
# Potency is the fitted concentration of half-maximal effect; tags give direction and shape of the fitted curve or compound fluorescence and quenching.
# UniProt O00255, sequence (O00255 whole entry, looked up): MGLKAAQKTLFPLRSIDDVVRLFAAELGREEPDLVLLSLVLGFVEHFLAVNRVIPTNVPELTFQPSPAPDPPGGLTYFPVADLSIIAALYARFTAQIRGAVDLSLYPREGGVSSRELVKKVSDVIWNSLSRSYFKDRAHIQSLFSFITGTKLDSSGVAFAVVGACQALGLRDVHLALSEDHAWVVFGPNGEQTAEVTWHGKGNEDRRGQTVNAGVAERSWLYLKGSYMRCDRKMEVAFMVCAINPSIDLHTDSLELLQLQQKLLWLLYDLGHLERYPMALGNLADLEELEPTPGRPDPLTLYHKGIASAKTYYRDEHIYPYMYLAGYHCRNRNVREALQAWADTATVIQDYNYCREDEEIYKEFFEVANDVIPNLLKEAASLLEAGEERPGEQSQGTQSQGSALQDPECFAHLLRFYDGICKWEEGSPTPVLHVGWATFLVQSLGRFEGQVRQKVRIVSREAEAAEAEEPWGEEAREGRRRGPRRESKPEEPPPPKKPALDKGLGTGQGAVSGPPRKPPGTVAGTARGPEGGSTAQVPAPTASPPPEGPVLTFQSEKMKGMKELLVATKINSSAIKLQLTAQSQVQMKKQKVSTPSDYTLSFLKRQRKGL
SMILES,Potency,"FP activity change, negative = inhibition"
COc1ccc(NC(=O)CCCNC(=O)Cn2cnc3sc(C)c(C)c3c2=O)c(OC)c1,"inconclusive: 39.8 µM [fluorescent, side channel, single point]",
COc1ccc(-c2nonc2NC(=O)c2oc3ccccc3c2C)cc1OC,"inconclusive: 35.5 µM [inhibitor, single point]",
Clc1ccc(CN2C3=NCCCN3c3ccccc32)c(Cl)c1,"inconclusive: 39.8 µM [inhibitor, single point]",
CC(C)N=c1cc2n(-c3ccc(Cl)cc3)c3ccccc3nc-2cc1Nc1ccc(Cl)cc1,"inconclusive: 3.16 µM [inhibitor, full curve, poor fit]",
CC1CCN(CC(=O)n2c3c(c4ccccc42)CCCC3)CC1,"inconclusive: 8.91 µM [fluorescent, side channel, partial curve]",
CCCCC(=O)Nc1nc(C)c(-c2csc(Nc3cc(OC)ccc3OC)n2)s1,"inconclusive: 8.91 µM [quencher, side channel, partial curve]",
C[C@H]1Cc2c(-c3ccccc3)nc3c(c2CO1)CN(C(=O)c1cccnc1)CC3,,inactive: 2.03% [at 11.7 µM]
C#CCSc1nc(-c2cccs2)ccc1C#N,"inconclusive: 39.8 µM [inhibitor, single point]",
CCNc1ccc(C(=O)Nc2ccc3nc(C)sc3c2)cc1[N+](=O)[O-],"inconclusive: 7.08 µM [quencher, side channel, partial curve]",
COc1cccc(C2=Nn3c(nnc3-c3ccccc3OC)SC2)c1,"inconclusive: 35.5 µM [inhibitor, partial curve]",
Nc1nnc(CC(=O)N/N=C/c2cccc([N+](=O)[O-])c2)s1,,inactive: -13.1%
Cc1c(CCOC(=O)CC23CC4CC(CC(C4)C2)C3)sc[n+]1CC(=O)c1ccccc1,"inconclusive: 2 µM [fluorescent, side channel, full curve, poor fit]",
O=C(Nc1ccc(Cl)c(Cl)c1)Nc1nnc(-c2ccncc2)s1,"inconclusive: 3.55 µM [inhibitor, full curve]",
Cc1cc(C(=O)O)ccc1-n1c(C)cc(/C=C(/C#N)C(=O)Nc2ccccc2)c1C,"inconclusive: 10 µM [quencher, side channel, partial curve]",
CN1C(=O)C(O)(CC(=O)c2cccnc2)c2ccccc21 (stereo not given),"inconclusive: 25.1 µM [inhibitor, single point]",
O=c1c2cc(Br)ccc2nc(-c2ccccc2)n1O,"inconclusive: 39.8 µM [quencher, side channel, single point]",
COc1ccc(C2NC(=O)NC3=C2CCc2ccccc23)cc1 (stereo not given),,inactive: -0.439%
O=S1(=O)CCOCCCN1Cc1cccc(F)c1,"inconclusive: 0.891 µM [quencher, side channel, partial curve]",
Cc1ccc(S(=O)(=O)NCc2ccccc2C)cc1,"inconclusive: 25.1 µM [fluorescent, side channel, single point]",
CCOCC(=O)Nc1c(C(=O)Nc2ccc3c(c2)OCCO3)oc2ccccc12,"inconclusive: 8.91 µM [quencher, side channel, partial curve]",

SMILES,Potency,"FP activity change, negative = inhibition"
Clc1ccc(CSc2ccc(-c3ccccn3)nn2)cc1,"inconclusive: 35.5 µM [fluorescent, side channel, single point]",
O=C(O)c1ccccc1NC(=O)c1cc(-c2ccccc2)nc2ccccc12,"inconclusive: 11.2 µM [quencher, side channel, partial curve]",
COc1ccccc1/C=N/NC(=O)NC12CC3CC(CC(C3)C1)C2,"inconclusive: 3.55 µM [inhibitor, full curve, poor fit]",
C(=N\Nc1ccc2ccccc2n1)/c1ccc2c(c1)OCCO2,"inconclusive: 31.6 µM [quencher, side channel, single point]",
Cc1cc(C)c(S(=O)(=O)NCc2ccccn2)cc1C,"inconclusive: 6.31 µM [inhibitor, full curve, poor fit]",
COc1cc(OC)c2c(c1)OC(=O)CC2c1ccc2c(c1)OCO2 (stereo not given),"inconclusive: 31.6 µM [quencher, side channel, single point]",
CCCN(CC(=O)Nc1ccc(C(N)=O)cc1)CC(=O)Nc1cc(Cl)ccc1Cl,"inconclusive: 28.2 µM [fluorescent, side channel, partial curve]",
CC(C)NS(=O)(=O)c1ccc(OCC(=O)NCCC2=CCCCC2)cc1,"inconclusive: 28.2 µM [fluorescent, side channel, single point]",
NS(=O)(=O)c1ccc(CNC(=O)c2cc(-c3ccccc3)nc3ccccc23)cc1,"inconclusive: 22.4 µM [quencher, side channel, single point]",
O=Cc1cn(-c2ccccc2)nc1-c1cc2c(ccc3ccccc32)oc1=O,,inactive: -12.3%
COc1ccc(-c2csc(NC(=O)c3ccccc3F)n2)cc1,"inconclusive: 17.8 µM [inhibitor, single point]",
Cc1ccc(-n2nc3c(=O)n(C(C)C(=O)NCCc4cccs4)nc(C)c3c2C)cc1 (stereo not given),"inconclusive: 8.91 µM [fluorescent, side channel, partial curve]",
CCOc1ccc(-n2cc(-c3ccccc3)c3c(SC(C)C(=O)OC)ncnc32)cc1 (stereo not given),,inactive: -4.67%
Oc1ccccc1/C=N/N1CCCCC1,,inactive: 3.22%
C=CCOc1ccc(CNC(C)(C)CO)cc1OCC,"inconclusive: 10 µM [inhibitor, partial curve]",
CSc1nnc(-c2cccn(Cc3ccccc3)c2=O)o1,,inactive: -0.794%
COc1ccc(-c2csc(Nc3cccnc3)n2)cc1,"inconclusive: 5.62 µM [quencher, side channel, partial curve, poor fit]",
Nc1c2c(=O)oc(-c3ccccc3)cc2nn1-c1ccccc1,"inconclusive: 39.8 µM [quencher, side channel, single point]",
CN(C)CCCN(C(=O)c1ccc(C(=O)c2ccccc2)cc1)c1nc2cc3c(cc2s1)OCO3,"inconclusive: 3.55 µM [fluorescent, side channel, full curve, poor fit]",
CC(C)c1onc(C(=O)N2CCCCC2C)c1[N+](=O)[O-] (stereo not given),"inconclusive: 35.5 µM [fluorescent, side channel, single point]",

SMILES,Potency,"FP activity change, negative = inhibition"
c1ccc(C2=Nc3ccccc3SC2c2nc3ccccc3[nH]2)cc1 (stereo not given),"inconclusive: 28.2 µM [quencher, side channel, partial curve]",
Cc1cc(NS(=O)(=O)c2ccc(NC(=S)NCc3ccccc3)cc2)no1,,inactive: -6.59%
COc1cccc2sc(NC(=O)c3ccc(S(=O)(=O)N4CCOCC4)cc3)nc12,"inconclusive: 39.8 µM [quencher, side channel, single point]",
CCOc1ccc(S(=O)(=O)c2c[nH]c3ccc(C)cc3c2=O)cc1,"inconclusive: 35.5 µM [fluorescent, side channel, single point]",
O=C(CSc1ccc2nnc(-c3cccnc3)n2n1)NCc1ccc2c(c1)OCO2,"inconclusive: 20 µM [inhibitor, partial curve]",
CC(=O)c1ccc(NS(=O)(=O)c2ccc(C(C)(C)C)cc2)cc1,"inconclusive: 20 µM [quencher, side channel, single point]",
O=C1c2ccccc2NC(c2cccc(Cl)c2)N1N=C1CCCCCC1 (stereo not given),,inactive: -26.6%
Cc1ccc(Oc2cc(NC(=O)CCCn3nc(C)c([N+](=O)[O-])c3C)cc([N+](=O)[O-])c2)cc1,"inconclusive: 3.98 µM [quencher, side channel, full curve]",
COC(=O)/C=C/c1cnc[nH]1,"inconclusive: 7.94 µM [inhibitor, full curve]",
N#Cc1c(-c2ccccc2)cc(-c2ccco2)c(C#N)c1N,"inconclusive: 17.8 µM [quencher, side channel, partial curve]",
Nc1ccc(C(=O)c2cccs2)cc1[N+](=O)[O-],"inconclusive: 31.6 µM [quencher, side channel, single point]",
CSc1ccc(CN2CCN(Cc3ccc([N+](=O)[O-])cc3)CC2)cc1,,inactive: -17.3%
CS(=O)(=O)N(CCCC(=O)N1CCCCCC1)c1cccc(Cl)c1,"inconclusive: 3.98 µM [inhibitor, full curve, poor fit]",
CCCCn1c(SCC(=O)c2ccc3c(c2)OCCO3)nnc1-c1ccoc1C,"inconclusive: 4.47 µM [fluorescent, side channel, partial curve]",
Cc1ccc(-c2csc(NC(=O)CSc3nc4ccccc4[nH]3)n2)cc1,"inconclusive: 11.2 µM [quencher, side channel, partial curve]",
COc1ccc(-c2ccn(-c3cccc(F)n3)n2)cc1,"inconclusive: 39.8 µM [quencher, side channel, single point]",
CC(C)CCNC(=O)NC(=O)CSc1nnc(-c2ccccc2Br)o1,"inconclusive: 35.5 µM [fluorescent, side channel, single point]",
Cc1cc(C(=O)N/N=C/c2ccc(O)c(O)c2O)c(C)n1-c1ccccc1,"inconclusive: 28.2 µM [quencher, side channel, partial curve]",
O=C1S/C(=C/c2ccccc2)C(=O)N1CC(O)Cn1c2ccccc2c2ccccc21 (stereo not given),"inconclusive: 25.1 µM [inhibitor, single point]",
OC(COCC(F)(F)C(F)(F)C(F)(F)C(F)F)Cn1c2ccc(Cl)cc2c2cc(Cl)ccc21 (stereo not given),"inconclusive: 14.1 µM [quencher, side channel, partial curve]",
